Here are results for 56 variants from the RNAGym collection of RNA variant scans (doi:10.7554/elife.90254).

Read counts are not given, so values of variants with three or more changes are uncertain.

B1: LINE1-mini (parent)
chain: GGCAGAGCUCAACACAGCGUGGCAAAGUGGCUGUGGCUAGACUGCC

This series covers variants of B1. Put plainly: self-cleavage, relative activity (ratio to wild type); higher = more cleavage; in vitro, sequencing; the parent is a self-cleaving ribozyme.
Consider GCCAGAGCUCAACAUAGAGUGGCAAAGUGGCUCUGGGUAGACUGCC, for which the self-cleavage is 0.06. With GCCAGAGCCCAACACAGCGUGGCAAAGUGGCGGUGGCUAGACUGCC, the self-cleavage stood at 0.04. For the variant GCCAGAGCUCAACACAGUGUGGCAAAGUUGCUGUGGCUAGACUGCC, the self-cleavage turned out to be 0.08.

Regarding GCCAGAGCUCAACACAGCGGGGUAAAGUGGGUGUAGCUAGGCUGCC, the self-cleavage was determined as 0.02. As for GCCAGAUCUCAACACAGCCUGGCAAAGUGGCAGUGGCUAGACUGCC, the self-cleavage amounted to 0.06. Then GCCAGAGCUCAACACAGCGUGGAAAAGUGGCUGUGGCUAGAGUGGC, with 0.07; and GCCAGAUCUCAACACAGCGUGGCAAAGUGGCUGUGGCUAGACAGCU, with 0.53. Then GCCAGAGCGCAACACAGCGUGGAAAAGUGGCUGUGGCUAGACUGCC, with 0.03. GCCAGAGCUCAACACAGCGUGGCAAAGUGGCAGUGGCUAAACUGCC: the self-cleavage turned out to be 0. Turning to GUCGUAGUUCCACACAGCGAGGCAAAGUGGCUGUGGCUACACUGCC, the self-cleavage stood at 0.02. With GCCAUAGUUCAACACAGCGUGACAACGUGGCUGUGGCUAGACUGCC the figure was 0.03.

Take GCCAAAGCUCCACACAGCGAGGCAAAGUGGCUGUGGCUCGACUGCC: the self-cleavage worked out at 0. For the variant GCCAGAGCUCAACACAGAGUGGCAAAGUGGCUAUCGCUAGACUGCA, the self-cleavage was 0.01. Turning to GCCACAGUUCUACACAGCGUGGCAAAAUGGCUAUGGUUAGACUGCC, the self-cleavage was 0.02. With GCCAGAGCUCAACACAGCGUAGCAAAGUGUCUGUGACUAGACUGCC the figure was 0.06. On to GUCGCAGCUCAACACAGCAUGGCAAAGUGGCUGUGGCUAGACUGCC, for which the self-cleavage is 0.13. Consider GUCGGAGCUCAACACAGCGUGGCCAAGUGGCUGUGGCUAGACUGCC, for which the self-cleavage stood at 0.06. Turning to GCCAGAGCUCAACACAGCGUGGCAAAGUGGCUGUAGCCGUACUGCC, the self-cleavage turned out to be 0.05.

Regarding GCCAGAGCUCAACAAAGCGUGGCAAAGUGGCUCUGGCUAGACUGCC, the self-cleavage was determined as 0.01. With GUCCGAGCUCAACACAGCGUGGCAAAGUGGCUGUGGCUAGAUUUCC the figure was 0.03; with GCCAGAGCUCAACACAGCGUGGCAAAGUGGCUGUGUAUAGACUGCC, 0.13; with GUCGGAGCUCAACACAGCGUGGCAAAGUGGUUGUGGCUAGACUACC, 0.09. With GCCAGAGCUCAACACAGCAUGGCAAAGUGGCUGCGGUUAGACUGCC the figure was 0.04; with GCCAGAGCUCAACACAGCGUGGCAAAGUGGCUGGGGCUAGACUACC, 0.05. For GCCAGAGCUCAACACAGCGUGGCAAAGUGGCUGGGGCUAGACUCCC, the self-cleavage was 0.14.

Turning to GCCAGAUCUCAACACAGCGUGGCAAAGUGGCUGUAGCUAGACUGCC, the self-cleavage turned out to be 0.24. With GCCAGAGCUCAACACAGCGUGGCAAAGUGACUGUGGCUAGACACCC, the self-cleavage worked out at 0.11. Take GCCAGAUCUCAACACAGCGUGGCAAAGUGGCUGGGGCUAGACUGCC: the self-cleavage amounted to 0.21.

Turning to GCCAGAGCUCAACACAGCAUGGCAAAGUGGCUGUGGCUAGACUGAC, the self-cleavage worked out at 0.03. Consider GCCAGAGCACAACACAGCGUGGCAAAGUGGCUGUGGCACGACUGAC, for which the self-cleavage came out at 0.29. For GCCAGAUCUCAACACAGCGUGGCGAAGUGGAUGUGGCUAGACUGCC, the self-cleavage came to 0.03. With GCCAGAGCACAACACAGCUUGCCACAGUGGCUGUGGCUAGACUGCC the figure was 0.16. Take GCCAGAGCUCAACACAGCGUGGCAAAGUGUCUGUGGCUAGAUUGCC: the self-cleavage is 0.05. Then GCCACAGCUCAACACAGUGUGGCAAAGUGGCUGUAGCUAGACUACC, with 0.03; and GCCAUAGCUCAACACAGCGUGGCAAAAUGGCUGUGGAUAGACUGCC, with 0.02.

As for GCCAGAGCUCAACACAGCGUGUCAAAGUGGCUAUGGCUCGACUGCC, the self-cleavage was determined as 0.03. GUCCGAGCUCAACAGAACGUGGCAAAGUGGUUGUGGCUAGACUGCC: the self-cleavage is 0.03. GCCAGAGCUCAACAAAGCGUGGUAAACUGGCUGUGGCUAGAUUCCC: the self-cleavage came to 0.11. On to GCCAGAGCUCAACAGAGCGUGGCAAAGUGGCUGUGGCUAGACUGGC, for which the self-cleavage is 0.01. Take GCCAGAGCACAACUCAUCGUGGCAAAGUGGAUGUGGCUUGUCUGAC: the self-cleavage was determined as 0.09. With GUCCGAGCUCAACACAGCGUGGCAAAGUGGGUGUGGCUAGACAGCC the figure was 0.03; with GCCAGAGCUCAACACAGCGAGGCUAUUUGGCUGUGACAAGACUGCA, 0.06. Regarding GCCAGAGCUCAACACACCGUGGCAAAGUGGCUGUGGCUAGCCUGCC, the self-cleavage stood at 0.08. With GUCGGAGCUCAACACAGCAUGGCAAAGUUGCUGUGUCUAGACUGCA the figure was 0.02; with GCCAGAGCUCAACACAGCGUGGCAAAGUGGCUGUGGCAAGUCUGCC, 0.08; with GCCAGAGCUCAACACAGCGUGGCAAAGUGGCUGCGGCUAGACUGCU, 0.01. Regarding GCCAGAGCUCAACACAGGGUUGCAAAGUGGCUGUGGCUAGACUGCC, the self-cleavage turned out to be 0.08. Consider GCCAUAGCUCAACACAGCGUGGCAAAGUGGCUGGGGUUAGACUGCC, for which the self-cleavage turned out to be 0.04.

Take GCCAGAGCACAACACAACGUGGCAAAGUGGCUGUGGCUAGACUGCC: the self-cleavage stood at 0.06.

For the variant GCCAGAGCUCAACACAGCAUGGCAAAGUGGGUGUGGCUAGACUGCC, the self-cleavage came out at 0.05. For the variant GUCGGAGAUCAACACAGCGUGGCAAAGUGGCUGUGGCUAGGCUGCC, the self-cleavage turned out to be 0.35.

Take GCCAGAACUCAACACAGCGUUGCAAAGUGGCUGUGGCUAGACUGCC: the self-cleavage was 0.95. For GCCAGAGCUCAACAAAGCGUGUCAAAGUGUCUGUGGCUAGACUACC, the self-cleavage is 0. For GCCAGAGCUCAACACAGUGUGGCAAAGAGACUGUGGCUAUACUGCC, the self-cleavage was 0.04. As to GCCAGAGCUCAACACAGUGUGGCAUAGUGGCUGUGUCCAGACUGCC, the self-cleavage was found to be 0.03.

As for GCCAUAGCUCAACACAGCGUGCCAAAGUGGCUGUGGCUAGACUGCC, the self-cleavage turned out to be 0.01.
